Like-named read-outs stand apart in the source and are kept apart here.
Assays:
[1] = target: T1, human motilin receptor (Homo sapiens, UniProt O43193); assay: Aequorin functional assay (Method B2); format: cell-based; design: host or cells: CHO-K1 cells co-expressing Galpha16 and mitochondrially targeted aequorin; conditions: antagonist testing against motilin at EC80 (0.5 nM)
[2] = target: T1, human motilin receptor; assay: Competitive radioligand binding assay (Method B1); design: purchased PerkinElmer 6110544; host or cells: CHO cells, stably transfected (membranes)
Protocol: Competitive Radioligand Binding Assay (Motilin Receptor)
• Membranes were prepared from CHO cells stably transfected with the human motilin receptor and utilized at a quantity of 1.5 μg/assay point.
Final Test Concentrations (N=11) for Compounds:
Compounds were provided frozen on dry ice at a stock concentration of 10 mM diluted in 100% DMSO and stored at −20° C. until the day of testing. On the test day, compounds were allowed to thaw at room temperature and than diluted in assay buffer according to the desired test concentrations. Under these conditions, the maximum final DMSO concentration in the assay was 0.5%.
Plates are sealed with TopSeal-A, vortexed gently and incubated at room temperature for 2 hours. The reaction is arrested by filtering samples through pre-soaked (0.3% polyethyleneimine, 2 h) Multiscreen Harvest plates using a Tomtec® Harvester (Tomtec, Hamden, Conn.)), washed 9 times with 500 μL of cold 50 mM Tris-HCl (pH 7.4), and than plates are air-dried in a fumehood for 30 minutes. A bottom seal is applied to the plates prior to the addition of 25 μL of MicroScint-0™ to each well.
Data are analyzed by GraphPad™ Prism (GraphPad Software, San Diego, Calif.) using a variable slope non-linear regression analysis.
where total and non-specific binding represent the cpm obtained in the absence or presence of 1 μM motilin, respectively.

[3] = Radioligand competitive binding assay, Method B1, values reported as ranges, read-out: Ki (binding activity)
[4] = Table 4, [125I]-motilin competition, read-out: Binding (Ki)

T1 sequence (O43193 whole entry): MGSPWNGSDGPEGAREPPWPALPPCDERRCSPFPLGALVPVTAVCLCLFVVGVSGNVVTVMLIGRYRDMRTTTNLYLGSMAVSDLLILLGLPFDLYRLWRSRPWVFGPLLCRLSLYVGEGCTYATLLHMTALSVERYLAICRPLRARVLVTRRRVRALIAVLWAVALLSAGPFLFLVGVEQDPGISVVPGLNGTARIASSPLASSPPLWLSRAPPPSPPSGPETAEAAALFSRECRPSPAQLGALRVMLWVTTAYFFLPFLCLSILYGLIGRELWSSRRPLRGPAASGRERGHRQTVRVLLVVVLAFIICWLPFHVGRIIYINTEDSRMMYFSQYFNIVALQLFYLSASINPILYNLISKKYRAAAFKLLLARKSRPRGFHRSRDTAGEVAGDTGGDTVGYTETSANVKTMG

| Compound | Ki [2, 3] | also measured |
| --- | --- | --- |
| CC(C)[C@H]1NC(=O)[C@@H](Cc2cccc3ccccc23)NCCOc2ccccc2CCCNC(=O)[C@H](CC2CC2)NC1=O [Compound 142] | 1 to 100 nM | IC50 [1]: 100 to 1000 nM; Ki [2, 4]: 1 to 100 nM |
| CCC[C@@H]1NC(=O)[C@@H](C(C)C)NC(=O)[C@@H](Cc2csc3ccccc23)NCCOc2ccccc2CCCNC1=O [Compound 167] | 1 to 100 nM | IC50 [1]: 1 to 100 nM; Ki [2, 4]: 1 to 100 nM |
| CCC[C@@H]1NC(=O)[C@@H](C(C)C)NC(=O)[C@@H](Cc2ccsc2)NCCOc2ccccc2CCCNC1=O [Compound 168] | 1 to 100 nM | IC50 [1]: 1 to 100 nM; Ki [2, 4]: 1 to 100 nM |
| CC(C)C1NC(=O)C(Cc2cccc3ccccc23)NCCOc2cccnc2CCCNC(=O)C(CN)NC1=O (stereo not shown) [Compound 184] | 100 to 1000 nM |  |
| CC(C)C1NC(=O)C(Cc2ccc(Cl)cc2)NCCOc2cccnc2CCCNC(=O)C(CN)NC1=O (stereo not shown) [Compound 185] | 100 to 1000 nM |  |
| CC(C)C1NC(=O)C(Cc2ccc(O)cc2)NCCOc2ccccc2CCCNC(=O)C(Cc2c[nH]cn2)NC1=O (stereo not shown) [Compound 186] | 100 to 1000 nM |  |
| CCCC1NC(=O)C(C(C)C)NC(=O)C(Cc2ccc([N+](=O)[O-])cc2)NCCOc2ccccc2CCCNC1=O (stereo not shown) [Compound 189] | 100 to 1000 nM |  |
| CC(C)[C@H]1NC(=O)[C@@H](Cc2csc3ccccc23)NCCOc2ccccc2CCCNC(=O)[C@H](CC2CC2)NC1=O [Compound 190] | 1 to 100 nM |  |
| CCCC1NC(=O)C(C(C)C)NC(=O)C(Cc2ccc(OC)cc2)NCCCc2c(c(=O)n(C)c(=O)n2C)CCCNC1=O (stereo not shown) [Compound 194] | 100 to 1000 nM |  |
| CCC[C@@H]1NC(=O)[C@@H](C(C)C)NC(=O)[C@@H](Cc2ccc(OC)cc2)NC(C)COc2ccccc2CCCNC1=O (stereo partly shown) [Compound 195] | 1 to 100 nM |  |
| CC(C)C1NC(=O)C(Cc2cccc(Cl)c2)NCCC2OC(CNC(=O)C(CC3CC3)NC1=O)C(O)C2O (stereo not shown) [Compound 199] | 100 to 1000 nM |  |
| CC(C)[C@H]1NC(=O)[C@@H](Cc2cccc(Cl)c2)NCCOc2ccccc2/C=C/CNC(=O)[C@H](CC2CC2)NC1=O [Compound 200] | 1 to 100 nM |  |
| CCCC1NC(=O)C(C(C)C)NC(=O)C(Cc2cccc3ccccc23)NCCOc2ccccc2C=CCNC1=O (stereo not shown) [Compound 201] | 100 to 1000 nM |  |
| CCCC1NC(=O)C(C(C)C)NC(=O)C(Cc2cccc(OC)c2)NCCOc2ccccc2C=CCNC1=O (stereo not shown) [Compound 202] | 1 to 100 nM |  |
| CC(C)C1NC(=O)C(Cc2ccc(O)cc2)NCCOc2ccccc2CCCNC(=O)C(CNC(=N)N)NC1=O (stereo not shown) [Compound 208] | 100 to 1000 nM |  |
| CC(=O)NCC1NC(=O)C(C(C)C)NC(=O)C(Cc2ccc(O)cc2)NCCOc2ccccc2CCCNC1=O (stereo not shown) [Compound 209] | 1000 to 10000 nM |  |
| CCCC1NC(=O)C(C(C)C)NC(=O)C(Cc2cc(I)c(O)c(I)c2)NCCOc2ccccc2CCCNC1=O (stereo not shown) [Compound 213] | 100 to 1000 nM |  |
| CCC[C@@H]1NC(=O)[C@@H](C(C)C)NC(=O)[C@@H](Cc2ccc(O)c(C(C)(C)C)c2)NCCOc2ccccc2CCCNC1=O [Compound 222] | 1 to 100 nM |  |
| CCCC1NC(=O)C(C(C)C)NC(=O)C(Cc2ccc(O)cc2)N(C(C)=O)CCOc2ccccc2CCCNC1=O (stereo not shown) [Compound 223] | 1000 to 10000 nM |  |
| CC(C)CC1NC(=O)C(C(C)C)NC(=O)C(Cc2cccc3ccccc23)N(C)CCOc2ccccc2CCCNC1=O (stereo not shown) [Compound 224] | 100 to 1000 nM |  |
| CC(=O)N1CCOc2ccccc2CCCNC(=O)C(CC(C)C)NC(=O)C(C(C)C)NC(=O)C1Cc1cccc2ccccc12 (stereo not shown) [Compound 225] | 100 to 1000 nM |  |
| CC(C)CC1NC(=O)C(C(C)C)NC(=O)C(Cc2cccc3ccccc23)N(Cc2nccs2)CCOc2ccccc2CCCNC1=O (stereo not shown) [Compound 226] | 1000 to 10000 nM |  |
| CC(C)CC1NC(=O)C(C(C)C)NC(=O)C(Cc2cccc3ccccc23)N(Cc2ccccc2)CCOc2ccccc2CCCNC1=O (stereo not shown) [Compound 227] | 100 to 1000 nM |  |
| CC[C@H](C)[C@H](NC(=O)[C@@H]1CCCN1C(=O)[C@@H](NC(=O)[C@@H](N)Cc1ccccc1)C(C)C)C(=O)N[C@@H](Cc1ccccc1)C(=O)N[C@H](C(=O)N[C@@H](Cc1ccc(O)cc1)C(=O)NCC(=O)N[C@@H](CCC(=O)O)C(=O)N[C@@H](CC(C)C)C(=O)N[C@@H](CCC(N)=O)C(=O)N[C@@H](CCCNC(=N)N)C(=O)N[C@@H](CCSC)C(=O)N[C@@H](CCC(N)=O)C(=O)N[C@@H](CCC(=O)O)C(=O)N[C@@H](CCCCN)C(=O)N[C@@H](CCC(=O)O)C(=O)N[C@@H](CCCNC(=N)N)C(=O)N[C@@H](CC(N)=O)C(=O)N[C@@H](CCCCN)C(=O)NCC(=O)N[C@@H](CCC(N)=O)C(=O)O)[C@@H](C)O [Motilin, motilin, reference compound] |  | Ki [2]: 0.6 nM |

More lines, main results first:

| Ki [2, 3] | Compound | also measured |
| --- | --- | --- |
| 100 to 1000 nM | CC(C)C1NC(=O)C(Cc2cccs2)NCCOc2ccccc2CCCNC(=O)C(CO)NC1=O (stereo not shown) [Compound 180] |  |
| 1 to 100 nM | CC(C)[C@H]1NC(=O)[C@@H](Cc2cccc(Cl)c2)NCCOc2ccccc2CCCNC(=O)[C@H](CO)NC1=O [Compound 181] |  |
| 1 to 100 nM | CC(C)[C@H]1NC(=O)[C@@H](Cc2ccc(Cl)cc2)NCCOc2ccccc2CCCNC(=O)[C@H](CO)NC1=O [Compound 182] |  |
| 100 to 1000 nM | CC(C)C1NC(=O)C(Cc2ccc(F)cc2)NCCOc2ccccc2CCCNC(=O)C(CO)NC1=O (stereo not shown) [Compound 183] |  |
| 1 to 100 nM | CCC[C@@H]1NC(=O)[C@@H](C(C)C)NC(=O)[C@@H](Cc2cccc(C(F)(F)F)c2)NCCOc2ccccc2CCCNC1=O [Compound 187] |  |
| 1 to 100 nM | CCCC1NC(=O)C(C(C)C)NC(=O)C(Cc2cccc(F)c2)NCCOc2ccccc2CCCNC1=O (stereo not shown) [Compound 188] |  |
| 1 to 100 nM | COc1cccc(C[C@H]2NCCOc3ccccc3CCCNC(=O)[C@H](CC3CC3)NC(=O)[C@@H](C(C)C)NC2=O)c1 [Compound 191] |  |
| 1 to 100 nM | CC(C)[C@H]1NC(=O)[C@@H](Cc2ccc(Cl)c(Cl)c2)NCCOc2ccccc2CCCNC(=O)[C@H](CC2CC2)NC1=O [Compound 192] |  |
| 1 to 100 nM | CC(C)[C@H]1NC(=O)[C@@H](Cc2ccc(F)c(F)c2)NCCOc2ccccc2CCCNC(=O)[C@H](CC2CC2)NC1=O [Compound 193] |  |
| 1 to 100 nM | CC1COc2ccccc2CCCNC(=O)[C@H](CC2CC2)NC(=O)[C@@H](C(C)C)NC(=O)[C@@H](Cc2cccc(Cl)c2)N1 (stereo partly shown) [Compound 198] |  |
| 100 to 1000 nM | CC(=O)NCC1NC(=O)C(C(C)C)NC(=O)C(Cc2ccc(Cl)cc2)NCCOc2ccccc2CCCNC1=O (stereo not shown) [Compound 203] |  |
| 1 to 100 nM | CC(C)[C@H]1NC(=O)[C@@H](Cc2ccc(Cl)cc2)NCCOc2ccccc2CCCNC(=O)[C@H](CN=C(N)N)NC1=O [Compound 204] |  |
| 100 to 1000 nM | CC(C)CC1C(=O)NCCCc2ccccc2OCCNC(Cc2cccc(Cl)c2)C(=O)NC(C(C)C)C(=O)N1C (stereo not shown) [Compound 205] |  |
| 100 to 1000 nM | CC(C)C1NC(=O)C(Cc2ccc(Cl)cc2)NCCOc2ccccc2CCCNC(=O)C(CNS(C)(=O)=O)NC1=O (stereo not shown) [Compound 206] |  |
| 100 to 1000 nM | CC(C)C1NC(=O)C(Cc2ccc(Cl)cc2)NCCOc2ccccc2CCCNC(=O)C(CNC(N)=O)NC1=O (stereo not shown) [Compound 207] |  |
| 1 to 100 nM | CC(C)[C@H]1NC(=O)[C@@H](Cc2ccc(Cl)cc2)NCCOc2ccccc2CCCNC(=O)[C@H](CN(C)C)NC1=O [Compound 211] |  |
| 1 to 100 nM | CC(C)NC[C@@H]1NC(=O)[C@@H](C(C)C)NC(=O)[C@@H](Cc2ccc(Cl)cc2)NCCOc2ccccc2CCCNC1=O [Compound 212] | IC50 [1]: 1 to 100 nM; Ki [2, 4]: 1 to 100 nM |
| 100 to 1000 nM | COc1ccc(CC2NCCOc3ccccc3CCCNC(=O)C(CCO)NC(=O)C(C(C)C)NC2=O)cc1 (stereo not shown) [Compound 214] |  |
| 100 to 1000 nM | CC(C)C1NC(=O)C(Cc2ccc(O)cc2)NCCOc2ccccc2CCCNC(=O)C(CN(C)C)NC1=O (stereo not shown) [Compound 215] |  |
| 100 to 1000 nM | CC(C)C1NC(=O)C(Cc2cccc(Cl)c2)NCCOc2ccc(F)cc2CCCNC(=O)C(CC2CC2)NC1=O (stereo not shown) [Compound 217] |  |
| 1 to 100 nM | CCC[C@@H]1NC(=O)[C@@H](C(C)C)NC(=O)[C@@H](Cc2cccc(Cl)c2)NCCOc2ccccc2C(C)CCNC1=O (stereo partly shown) [Compound 218] |  |
| 100 to 1000 nM | CCCC1NC(=O)C(C(C)C)NC(=O)C(Cc2cccc(Cl)c2)NCCOc2ccc(Cl)cc2CCCNC1=O (stereo not shown) [Compound 219] |  |
| 100 to 1000 nM | CCCC1NC(=O)C(C(C)C)NC(=O)C(Cc2cccc(Cl)c2)NCCOc2cc(F)ccc2CCCNC1=O (stereo not shown) [Compound 221] |  |

Reference: patent US20090240027A1, “INTERMEDIATES FOR MACROCYCLIC COMPOUNDS” (Tranzyme Pharma Inc., priority 2003, published 2009)
